Reference: PubChem BioAssay AID485290 (National Center for Advancing Translational Sciences (NCATS), 2010)
Several values for one entry are separate records, joined by “and”; a condition that tells them apart may be missing. Identical values can stand only once. The campaign covered roughly 350,000 compounds. About 990 (0.28%) were called active. This list was built around the results that the source calls inconclusive (neither active nor inactive); the mix of calls is not that of the screen. Calls come from the whole dose curve; as a rule, active = well fitted inhibition curve with a large enough effect; inconclusive = small, poorly fitted or top-dose-only effect; inactive = no such curve, though single readings can be large or run the other way. Where the call is inconclusive, the potency comes from a doubtful curve fit.

molecular target: Tyrosyl-DNA phosphodiesterase 1 (Homo sapiens) (UniProt Q9NUW8); test: qHTS Assay for Inhibitors of Tyrosyl-DNA Phosphodiesterase (TDP1); details: recombinant TDP1, AlphaScreen DNA substrate cleavage; activity change, negative = inhibition: at 130 µM (top of the series) unless noted; note: nearly all actives have a fitted effect of over 40% in size
Chain of UniProt Q9NUW8 (Q9NUW8 whole entry, looked up): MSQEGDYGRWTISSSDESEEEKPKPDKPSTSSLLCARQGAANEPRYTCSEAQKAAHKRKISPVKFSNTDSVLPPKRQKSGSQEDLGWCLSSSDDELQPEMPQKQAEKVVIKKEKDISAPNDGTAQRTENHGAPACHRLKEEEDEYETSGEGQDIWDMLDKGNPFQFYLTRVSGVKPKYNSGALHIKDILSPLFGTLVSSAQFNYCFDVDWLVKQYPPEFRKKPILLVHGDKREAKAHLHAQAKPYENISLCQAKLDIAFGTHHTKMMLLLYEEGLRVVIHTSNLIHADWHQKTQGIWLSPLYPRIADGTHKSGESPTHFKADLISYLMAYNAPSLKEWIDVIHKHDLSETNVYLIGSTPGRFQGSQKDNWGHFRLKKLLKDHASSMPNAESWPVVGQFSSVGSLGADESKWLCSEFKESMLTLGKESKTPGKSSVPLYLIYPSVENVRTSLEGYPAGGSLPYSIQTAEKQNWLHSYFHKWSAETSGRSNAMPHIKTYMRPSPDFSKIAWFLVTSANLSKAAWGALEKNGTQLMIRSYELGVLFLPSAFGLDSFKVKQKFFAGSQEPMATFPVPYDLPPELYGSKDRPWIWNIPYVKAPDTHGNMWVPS
Procedure, shortened: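 E. coli-derived human Tdp1, 1 nM final. Cpd preinc 15 min RT; substrate 15 nM final, 5 min RT; AS bead mix 10 ug/ml final, 10 min RT. Signal loss = tyrosine-FITC cleavage. No-enzyme wells = max signal.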
% is set by controls: 0 for no effect and ±100 for the full control effect; potency is the fitted concentration of half-maximal effect; tags give direction and shape of the fitted curve.

Potency, active:
COc1ccc2nc(N3CCCCC3)c(C#N)cc2c1 39.8 µM, O=C(O)Cc1ccc(S(=O)(=O)N2CCCC2)s1 10 µM, CC(C)COC(=O)COc1cc(Cl)c(Cl)cc1Cl 50.1 µM, O=c1cc(-c2ccsc2)oc2cc(-c3ccc4c(c3)OCO4)ccc12 7.08 µM, Cc1ccc(Nc2nc(N)nc(CSc3nnnn3-c3ccccc3)n2)cc1 79.4 µM, Cc1nc(N=Nc2ccc(S(=O)(=O)O)cc2S(=O)(=O)O)c(COP(=O)(O)O)c(C=O)c1O 25.1 µM and 20 µM, O=C(Nc1ccc(-n2nncc2-c2ccco2)cc1)c1cc2ccccc2oc1=O 39.8 µM, CCn1c(SCC(=O)N/N=C/C=C/c2ccco2)nnc1-c1ccccc1 22.4 µM

Potency, inconclusive:
CC1CCN(C(C)C(=O)Nc2ccccc2-c2ccccc2)CC1 (stereo not given) 20 µM [inhibitor, single point], O=C(CSc1nccc(=O)[nH]1)N1N=C2/C(=C/c3ccco3)CCCC2C1c1ccco1 (stereo not given) 10 µM [inhibitor, partial curve], COc1ccccc1OCc1nnc(SCC(=O)NCc2ccco2)n1Cc1ccco1 20 µM [inhibitor, full curve], CC(C)CC(=O)N1CCN(Cc2ccccc2[N+](=O)[O-])CC1 15.8 µM [inhibitor, partial curve, poor fit], O=C(CCS(=O)(=O)c1ccc(Br)cc1)Nc1ccc2c(c1)OCO2 50.1 µM [inhibitor, partial curve, poor fit], O=C(CCCCCNC(=O)c1ccccc1Br)N=Nc1c(O)[nH]c2ccccc12 44.7 µM [inhibitor, single point], Cc1cccc(NC(=O)CNC(=O)CCc2nc3sc4c(c3c(=O)[nH]2)CCCC4)c1C 10 µM [inhibitor, partial curve], CCOC(=O)c1c(NC(=O)CSc2nnc(-c3c[nH]c4ccccc34)n2CCOC)sc2c1CCCCC2 100 µM [inhibitor, single point], O=C(Cc1ccc(Cl)cc1)NCC(c1cccs1)S(=O)(=O)c1ccc(F)cc1 (stereo not given) 22.4 µM [inhibitor, single point], CNS(=O)(=O)c1ccc2nc(NC(=O)/C=C/c3ccco3)sc2c1 31.6 µM [inhibitor, full curve], CCC(=O)Nc1ccc(NC(=S)NC(=O)/C=C/c2ccccc2)cc1 15.8 µM [inhibitor, full curve], NS(=O)(=O)c1ccc(-c2ccc(/C=N/Nc3ccc(C(=O)O)cc3)o2)cc1 20 µM [inhibitor, partial curve, poor fit], Cc1cccc(CCNC(=O)c2c[nH]c3ccc(S(=O)(=O)Nc4ccccc4F)cc3c2=O)c1 22.4 µM [inhibitor, single point], CN(C)c1nc(SCC(=O)Nc2ccc(Cl)c(Cl)c2)nc(N2CCOCC2)n1 31.6 µM [inhibitor, full curve], O=C1c2cc(Cl)ccc2OC2(CCNCC2)C12CC(c1ccc(Cl)cc1)=NO2 (stereo not given) 100 µM [inhibitor, single point], Nc1ncnc2oc(-c3ccoc3)c(-c3ccco3)c12 14.1 µM [inhibitor, full curve, poor fit], Cc1ccc(-c2cc(C(F)F)nc(N3CCOCC3)n2)cc1 44.7 µM [inhibitor, partial curve], O=C(CSc1nc2c(cnn2-c2ccc(F)cc2)c(=O)[nH]1)Nc1ccccc1C(F)(F)F 63.1 µM [inhibitor, single point], COc1cccc(CN2CCN(c3cccc(C(F)(F)F)c3)CC2)c1OC 17.8 µM [inhibitor, partial curve], Cc1cc(=O)oc2c(CN3CCC(C)CC3)c(O)c(Cl)cc12 20 µM [inhibitor, partial curve], CC(C)CN(C(=O)CSc1nn(-c2ccc(Cl)cc2)c(=S)s1)C1CCS(=O)(=O)C1 (stereo not given) 39.8 µM [inhibitor, single point], Cc1nnc(SCC2=C(C(=O)O)N3C(=O)C(NC(=O)Cc4ccccc4)C3SC2)s1 (stereo not given) 44.7 µM [inhibitor, partial curve], Cc1ccc(C)c2c1NC(C(=O)O)C1CC=CC21 (stereo not given) 8.91 µM [inhibitor, full curve, poor fit], Oc1ccc(Cl)cc1C1=Nc2ccccc2N=C(c2cccc(Br)c2)C1 3.55 µM [inhibitor, single point], O=C1Nc2ccc3sc4ccccc4c3c2C1=O 50.1 µM [inhibitor, partial curve]

Potency, inactive:
CC(=O)/C=C/c1ccc2ccccc2n1, Cc1ccc(C)c(C(=O)COC(=O)C(C)N2C(=O)C3C4CCC(C4)C3C2=O)c1 (stereo not given), COC(=O)/C=C1\C(=O)N(c2nc3ccc(OC)cc3s2)C(=S)N1c1ccc(F)cc1, O=C(CSc1ccc(-c2cccs2)nn1)N1CCCCC1, CCOC(=O)C1CCN(C(=S)Nc2ccc(S(N)(=O)=O)cc2)CC1, CCN(CC)c1ccc(/C=C2\NC(=O)NC2=O)cc1, CCc1ccccc1NC(=O)c1ccc(F)c(S(=O)(=O)N2CCN(c3cccc(Cl)c3)CC2)c1, COc1cc2c(cc1OC)C1(CCCC1)CNC2c1ccc([N+](=O)[O-])cc1 (stereo not given), CCNC(=S)NNC(=O)c1cc(-c2ccc(OCC)cc2)nc2ccccc12, CCC12OC(=N)C(C#N)(C1C)C(C#N)(C#N)C(c1ccccc1)O2 (stereo not given), O=S1(=O)c2ccccc2N=NN1Cc1ccc(Cl)c(Cl)c1

Activity change, negative = inhibition, inactive:
Cc1ccc(N(C(=O)CNC(=O)c2ccco2)C(C(=O)NC2CCCC2)c2ccncc2)c(C)c1 (stereo not given) 4.21% [at 0.0935 µM]
